The labels stand for the following.
B1: GPR68, Q15743 (parent)
chain: MGNITADNSSMSCTIDHTIHQTLAPVVYVTVLVVGFPANCLSLYFGYLQIKARNELGVYLCNLTVADLFYICSLPFWLQYVLQHDNWSHGDLSCQVCGILLYENIYISVGFLCCISVDRYLAVAHPFRFHQFRTLKAAVGVSVVIWAKELLTSIYFLMHEEVIEDENQHRVCFEHYPIQAWQRAINYYRFLVGFLFPICLLLASYQGILRAVRRSHGTQKSRKDQIQRLVLSTVVIFLACFLPYHVLLLVRSVWEASCDFAKGVFNAYHFSLLLTSFNCVADPVLYCFVSETTHRDLARLRGACLAFLTCSRTGRAREAYPLGAPEASGKSGAQGEEPELLTKLHPAFQTPNSPGSGGFPTGRLA

Variants of B1 are the subject of series [1]. Kind of series: cAMP reporter score (Enrich2 score, wild type = 0); higher = more signal; HEK293T, FACS bins.
The variants in series [2] derive from B1. Kind of series: surface expression score (Enrich2 score, wild type = 0); higher = more signal; HEK293T, FACS bins.

Scores whose standard error is large were omitted. Two further conditions of the source, in which the scores hardly spread, are not listed. Read del as a deletion of the residues named and ins as an insertion between two positions. For some assays here: How much ogerin was present is not stated here.

On to F69A, for which the cAMP reporter score was 1.11 in series [1] (pH 5.5); -0.073 in series [1] (pH 6); -0.256 in series [1] (pH 6, modulator: ogerin); -0.392 in series [1] (pH 6.5, modulator: ogerin). In addition, in series [2], the surface expression score amounted to 0.168.
For the variant F69G, the cAMP reporter score in series [1] (pH 5.5) was -0.298; in series [1] (pH 6) it was -0.936. In addition, the surface expression score in series [2] was -1.32.
Regarding F69V, the cAMP reporter score was 0.102 in series [1] (pH 5.5); -1.43 in series [1] (pH 6); -1.13 in series [1] (pH 6, modulator: ogerin); -0.717 in series [1] (pH 6.5, modulator: ogerin). The surface expression score in series [2] is 1.02.
With F69E, the cAMP reporter score in series [1] (pH 5.5) is -1.9; in series [1] (pH 6), -1.44; in series [1] (pH 6.5, modulator: ogerin), -1.93. For the same variant, in series [2], the surface expression score was -2.62.
As for F69H, the cAMP reporter score in series [1] (pH 5.5) is -0.083; in series [1] (pH 6), -0.449; in series [1] (pH 6, modulator: ogerin), -0.073; in series [1] (pH 6.5, modulator: ogerin) it was -0.431. Further, in series [2], the surface expression score is -1.88.
As for F69W, the cAMP reporter score is -0.642 in series [1] (pH 5.5); -0.899 in series [1] (pH 6); -1.46 in series [1] (pH 6, modulator: ogerin); -1.31 in series [1] (pH 6.5, modulator: ogerin). Moreover, in series [2], the surface expression score was -0.033.
Regarding F69N, the cAMP reporter score in series [1] (pH 5.5) is -0.746; in series [1] (pH 6), -0.289; in series [1] (pH 6, modulator: ogerin), -0.691.
On to F69Y, for which the cAMP reporter score in series [1] (pH 5.5) was -0.699; in series [1] (pH 6), -0.947; in series [1] (pH 6, modulator: ogerin), -1.46; in series [1] (pH 6.5, modulator: ogerin), -1.62. Moreover, the surface expression score in series [2] was -1.43.
For D67V, in that order: -1.28, -0.612, -1.25, -0.986 and -1.2.
For D67T, in that order: -1.14, -0.069, -1.05, -0.791 and 0.134.
For D67S, the cAMP reporter score was -0.861 in series [1] (pH 5.5); -0.437 in series [1] (pH 6); -0.87 in series [1] (pH 6, modulator: ogerin); 0.427 in series [1] (pH 6.5, modulator: ogerin). In addition, the surface expression score in series [2] came to 0.512.
Take D67Y: the cAMP reporter score in series [1] (pH 5.5) is -1.69; in series [1] (pH 6) it was -0.275; in series [1] (pH 6, modulator: ogerin), -1.61; in series [1] (pH 6.5, modulator: ogerin), -1.35. The surface expression score in series [2] is -1.59.
With D67W, the cAMP reporter score is -0.535 in series [1] (pH 5.5); -0.34 in series [1] (pH 6, modulator: ogerin); -1.08 in series [1] (pH 6.5, modulator: ogerin). Further, the surface expression score in series [2] is -1.66.
In the case of L74_P75insGS, the cAMP reporter score is -1.81 in series [1] (pH 5.5); 0.059 in series [1] (pH 6); -1.5 in series [1] (pH 6.5, modulator: ogerin). Moreover, the surface expression score in series [2] was -2.68.
F69_Y70insGSG: the cAMP reporter score in series [1] (pH 5.5) is -1.1; in series [1] (pH 6) it was -1.54; in series [1] (pH 6, modulator: ogerin), -0.704; in series [1] (pH 6.5, modulator: ogerin) it was -0.847. In addition, the surface expression score in series [2] was -3.05.
Turning to S73_L74insG, the cAMP reporter score in series [1] (pH 5.5) was -1.45; in series [1] (pH 6), -1.22; in series [1] (pH 6, modulator: ogerin) it was -0.604; in series [1] (pH 6.5, modulator: ogerin), -1.13.
In the case of L68D, the cAMP reporter score in series [1] (pH 5.5) is -2.46; in series [1] (pH 6), -0.815.
With L68M, the cAMP reporter score in series [1] (pH 5.5) is -0.856; in series [1] (pH 6), -0.462; in series [1] (pH 6, modulator: ogerin), -0.732; in series [1] (pH 6.5, modulator: ogerin), -1.12. Further, the surface expression score in series [2] is -1.1.
Taken in the same sequence, the figures for L68I were 0.192, 1.97, 0.499, 0.199 and 0.147.
Taken in the same sequence, the figures for L68Q were -2.1, -1.79, -1.54, -1.59 and -1.89.
On to L68G, for which the cAMP reporter score in series [1] (pH 5.5) was -1.69; in series [1] (pH 6, modulator: ogerin) it was -0.676; in series [1] (pH 6.5, modulator: ogerin), -0.188. In series [2], the surface expression score is -2.08.
For L68C, the cAMP reporter score in series [1] (pH 5.5) was -0.723; in series [1] (pH 6), -0.406; in series [1] (pH 6, modulator: ogerin), -0.618; in series [1] (pH 6.5, modulator: ogerin) it was -0.703. The surface expression score in series [2] was -1.75.
L68K: the cAMP reporter score in series [1] (pH 5.5) is -1.79; in series [1] (pH 6) it was -1.03; in series [1] (pH 6.5, modulator: ogerin) it was -0.901. Further, the surface expression score in series [2] is -3.11.
As for L68W, the cAMP reporter score was -0.802 in series [1] (pH 5.5); -1.97 in series [1] (pH 6); -2.15 in series [1] (pH 6, modulator: ogerin); -1.44 in series [1] (pH 6.5, modulator: ogerin). In addition, in series [2], the surface expression score was -1.45.
Taken in the same sequence, the figures for L68Y were -1.4, -1.26, -1.86, -0.768 and -1.47.
As to L68P, the cAMP reporter score is -1.31 in series [1] (pH 5.5); -2.33 in series [1] (pH 6, modulator: ogerin); -0.956 in series [1] (pH 6.5, modulator: ogerin). Besides, in series [2], the surface expression score was -3.27.
L68S: the cAMP reporter score in series [1] (pH 5.5) was -1.37; in series [1] (pH 6), -0.777; in series [1] (pH 6, modulator: ogerin) it was -1.4; in series [1] (pH 6.5, modulator: ogerin), -0.137. The surface expression score in series [2] was -2.55.
For L68H, in that order: -0.874, -1.7, -2.09, -0.903 and -2.06.
Taken in the same sequence, the figures for L68R were -1.95, -1.07, -2.28, -0.601 and -2.45.
For L68V, in that order: -1.38, -0.843, -1.26, -0.362 and -1.97.
L68T: the cAMP reporter score in series [1] (pH 5.5) is -0.28; in series [1] (pH 6), -0.634; in series [1] (pH 6, modulator: ogerin), -0.294; in series [1] (pH 6.5, modulator: ogerin), -0.759. For the same variant, the surface expression score in series [2] is -1.76.
On to L68A, for which the cAMP reporter score was -1.17 in series [1] (pH 5.5); -0.478 in series [1] (pH 6); 0.168 in series [1] (pH 6, modulator: ogerin); -0.242 in series [1] (pH 6.5, modulator: ogerin).
Turning to L68F, the cAMP reporter score was 0.906 in series [1] (pH 5.5); -0.162 in series [1] (pH 6); -0.863 in series [1] (pH 6.5, modulator: ogerin). The surface expression score in series [2] came out at 0.206.

The values are drawn from the GPR68 mutational scans of Howard et al. (2025).
